Data as given in the RNAGym collection of RNA variant scans (doi:10.1073/pnas.2313332121).
Variants at the floor of the assay are shown more often than the library holds them.

B1: TPR 5TU (parent)
chain: GGAUCUUCUCGAUCUAACAAAAAAGACAAAUCUGCCACAAAGCUUGAGAGCAUCUUCGGAUGCAGAGGCGGCAGCCUUCGGUGGCGCGAUAGCGCCAACGUUCUCAACUAUGACACGCAAAACGCGUGCUCCGUUGAAUGGAGUUUAUCAUG

Variants of: B1
Test: polymerase ribozyme fitness, log enrichment relative to wild type (log ratio); higher = more active; in vitro selection for triplet polymerase activity
Outline: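 Each subunit of a heterodimeric triplet polymerase ribozyme was represented by a PCR-built, transcribed mutant library that underwent triplicate single-round in vitro selection with frozen incubation at −7 °C. Extended constructs were recovered by gel excision, streptavidin-bead capture and RT-PCR, and Illumina sequencing of input and output libraries kept genotypes with ≥10 input reads and ≥1 read per output. Fitness is the logarithm of genotype enrichment relative to wild-type enrichment, from inverse-variance-weighted replicate averages, with a logarithm base of 2.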

Variant | polymerase ribozyme fitness (log ratio)
GGAUCUUCUCGAUCUAACAAAAAAGACAAGUCUGCCACAAAGCUUGAGAGCCUCUUCGGAUGCAGAGGCGGCAGCCUUCGGUGGAGCGAUAGCGCCAACGUUCUCAACUAUGACACGCAAAACGCGUGCUCCGUUGAAUGGAGUUUAUCAUG [A30G A52C C85A] | ≤ -4.2
GGAUCUUCUCGAUCUAACAAAAAAGACAAGUCUGCCACAAAGCUUGAGACCAUCUUCGGAUGCAGAGGCGGCAGCCUUCGGUGGCGCGAUAGCGUCAACGUUCUCAACUAUGACACGCAAAACGCGUGCUCCGUUGAAUGGAGUUUAUCAUG [A30G G50C C95U] | ≤ -4.2
GGAUCUUCUCGAUCUAACAAAAAAGACAAGUCUGCCACAAAGCUUGAGAGCAUCUUUGGAUGUAGAGCCGGCAGCCUUCGGUGGCGCGAUAGCGUCAACGUUCUCAACUAUGACACGCACAACGGGUGCUCCGUUGAAUGGAGUUUAUCAUG [A30G C57U C63U G68C C95U A120C C125G] | ≤ -4.2
GGAUCUUCUCGAUCUAACAAAAAAGACAAGUCUGCCACAAAGCUUGAGACAAUCUUCGGAUGCAGAGGCGGCAGCCUUCGGUGACGGGAUAGCGCCAACUUUCUCAACUAUGACACGCAAGACGCGUGCUCCGUUGAAUGGAGUUUAUCAUG [A30G G50C C51A G84A C87G G100U A121G] | ≤ -4.2
GGAUCUUCUCGAUCUAACAAAAAAGACAAGUCUGCCACAAAUCUUGAGAGCAUCUUCGGAUGCAGAGGCGGCAGCCUUCGGUGGCGCGAUAGCGCCAACGUUCUCAACUAUGUUACGCAAAACGUGUGCUCCGUUGAAUGGAGUUUAUCAUG [A30G G42U A113U C114U C125U] | ≤ -4.2
GGAUCUUCUCGAUCUAACAAAAAAGACAAGUCUGCCACAAAGCUUGAGAUCAUCUUCGGAUGCAGAGGCGGCAGACUCCGGUGGCGCGAUAGCCCCAACGUUCUCAACUAUGACACGCAAAACGCGUGCUCCGUUGAAUGGAGUUUAUCAUG [A30G G50U C75A U78C G94C] | ≤ -4.2
GGAUCUUCUCGAUCUAACAAAAAAGACAAGUCUGCCACAAAGCUUGAGAGCAUCUUCGGAUGCAGAGGCGGCAGCUUUCGGUGGCGCGAUAGCGCUAACGUUCUCAACUAUGACACGCAAAACGCGUGCUCCGUUGAAUGGAGUUUAUCAUG [A30G C76U C96U] | ≤ -4.2
GGAUCUUCUCGAUCUAACAAAAAAGACAAGUCUGCCACAAAGCUUGAGAGCAUCUUCGGAUGCAGAGGCAGCAGCCUUCGGUGGCGCGAUUGCGCCAACGUUCUCAACUAUGACACGCAAAGCGCGUGCUCCGUUGAAUGGAGUGUAUCAUG [A30G G70A A91U A122G U145G] | ≤ -4.2
GGAUCUUCUCGAUCUAACAAAAAAGACAAGUCUUCCACAAAGCUUGAGAGCAUCUUCGGAUGCAGUGGCGGCAGCCUUCGGGGGCGCGAUAGCGCCAACGUGCUCAACUAUGACACGCAAAACGCGUGCUCCGAUGAAUGGAGUUUAUCAUG [A30G G34U A66U U82G U102G U134A] | ≤ -4.2
GGAUCUUCUCGAUCUAACAAAAAAGACAAGUCUGCCACAAAGCUUGAGCGCAUCAUCGGAUGCAGAGGCGGCAGCCUUCGGUGGCGCGAUAGCGCCAACGUUUUCAACUAUGACACGCAAAACGCGUGCUCCGUUGACUGGAGAUUAUCAUG [A30G A49C U55A C103U A138C U144A] | ≤ -4.2
GGAUCUUCUCGAUCUAACAAAAAAGACAAGUCUGCCACAAAGCUUGAGAGCAUCUUCGGAUGCAGAGGCGACAGCCUUCGGUGGGGCGAUAGCGCCAACGUUCUCAACUAUGACACGCAAAACGCGUGCUCCGUUGAAUGCAGUUUAUCAUG [A30G G71A C85G G141C] | ≤ -4.2
GGAUCUUCUCGAUCUAACAAAAAAGACAAGUCUGCCACAAAGCUUGAGAGCAUCUUCGGAUGCAGAGGCGGCAGCCUUCGGUGGCGGGAUAGCGCCAACGCUCUCAACUAUGACACGCAAAGCGCGUGCUCCGUUGAAUGGAGUUUAUCAUG [A30G C87G U101C A122G] | ≤ -4.2
GGAUCUUCUCGAUCUAACAAAAAAGACAAGUCUGCCACAAAGCUUGAGAGCAUCUUCGGAUGCAGAGGCGGCAGCCUUCGGUGGCGGGAUAGCGCCAACGUUCUCAACUAUGACACGCAAAACGCGUGCUCCGUUGAAUGGAGUUUAUCAUG [A30G C87G] | ≤ -4.2
GGAUCUUCUCGAUCUAACAAAAAAGACAAGUCUGUCACAAAGCUUGAGAGCAUCUUCGGAUGCAUAGGCGGCAGCCUUCGGUGGCGCGAUAGCUCCAACGUUCUCAACUAUGACACGCAAAACGCGUGCUCCGUCGAAUGGAGGUUAUCAUG [A30G C35U G65U G94U U135C U144G] | ≤ -4.2
GGAUCUUCUCGAUCUAACAAAAAAGACAAGUCUGCCACAAAGCUUGAGAGUAUCUUCAGAUGCAGAGGCGGCAGCCUUCGGUGGCUCGAUAGCGCCAACGUUCUCAACUAUGACACGCAAAACGCGUGCUCCGUUGAAUGGAGUUUAUCAUG [A30G C51U G58A G86U] | ≤ -4.2
GGAUCUUCUCGAUCUAACAAAAAAGACAAGUCUGCCAUAAAGCUUGAGAGCAUCUUCGGAUGCAGAGGCGGCUGCCUGCGGUGGCGGGAUAGCGCCAACGUUCUGAACUAUGACACGCAAAACGCGUGCUCCGUUGAAUGGAGUUUAUCAUG [A30G C38U A73U U78G C87G C105G] | ≤ -4.2
GGAUCUUCUCGAUCUAACAAAAAAGACAAGUCUCCCACCAAGCUUGAGAGCAUCUUCGGAUGCAGUGGCGGCAGCCUUCAGUGGCGCGAUAGCGCCAACGUUCUCAACGAUGACACGCAAUACGCGUGCUCCGUUGAAUGGAGUUUAUCCUG [A30G G34C A39C A66U G80A U109G A121U A150C] | ≤ -4.2
GGAUCUUCUCGAUCUAACAAAAAAGACAAGUCUGCUACAAAGCUUGAGAGCAUCUUCGGAUGCAGAGGCGGCAGCCUUCUGUGGCGCGGUAGCGCCAACGUUCUCAACUAUGACACGCAAAACUCGUGCUCCGUUGAAUGGAGUUUAUCAUG [A30G C36U G80U A89G G124U] | ≤ -4.2
GGAUCUUCUCGAUCUAACAAAAAAGACAAGUCUGCCACAAAGCUUGAGAGCCUCUUCGGAUGCAGAGGCGGCAGCCUUCGGUGUCGCGAUAGCGCCAACGUUCUCUACUAUGACACGCAAAACGCGUGCUCCGUUGAAUGGAGUUUAUCAUG [A30G A52C G84U A106U] | ≤ -4.2
